# Assay results: the supplement of paper PMC10338343
# ± gives the standard deviation. Over roughly 3,700 sequences, “pre-steady-state target cleavage rate” has its median near 0.02; the highest 2% begin near 0.23. The entries are a selection whose mix differs from that of the whole data set.
# Test system: MILI (PIWIL2) piRISC loaded with Kctd7 piRNA (26 nt)
# Experiment: pre-steady-state target cleavage rate (min^-1); MIWI and MILI are mouse PIWI proteins and EfPiwi is from a freshwater sponge; tags in brackets are library labels; higher = faster piRNA-guided slicing of the target
# Conditions: guide: Kctd7 piRNA 5'p-UGUUAAUCUCUCAGAGAAGGUGACAG; auxiliary factor: 500 nM mouse GTSF1
# Outline: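 In HEPES–potassium acetate buffer at 33 °C, […] transcribed, DNA-blocked target RNA library was mixed with 1 nM active affinity-purified piRISC carrying one synthetic guide, with or without 500 nM GTSF1 partner protein, for 0–8 or 0–960 min. Uncleaved targets were sequenced and normalised to depth and to weakly complementary targets; three trials were pooled and k3 was capped at 0.0001 min^-1. The pre-steady-state cleavage rate followed from a burst-and-steady-state fit.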
# 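Further: 1 nM active piRISC with 0.1 nM target library at 33 °C single turnover.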
row,Sequence,pre-steady-state target cleavage rate
1,UAGUCUCUCACCUUCUCUGAGAGAUUUACA,0.0472 ± 0.013
2,UAGUGACAGUGGAUCUCUCAGAGUUUAACA,< 0.0001
3,UAGUGACAGUCCCUCUCUGAGAGAUUAACA,0.0482 ± 0.0093
4,UAGUGAGUCACGUUCUCUGAGAGAUUAACA,0.161 ± 0.019
5,UAGUGAGUCACCUACUCUGAGAGAUUAUCA,0.104 ± 0.028
6,UAGUGAGUCUCCUUCUCUGAGAGAUUAACA,0.136 ± 0.017
7,UAGUGACUCACCUUCUCUGAGAGAUUAAUCA,0.14 ± 0.028
8,UAGUGAGUCACCUUCUCUGAGAGAUAUUCA,0.0659 ± 0.026
9,UAGUGACAGUCCUACUCUGAGAGAUUAUCA,0.00536 ± 0.0017
10,UAGUCUGACACCUUCUCUGAGAGUUUAACA,0.109 ± 0.016
11,UAGUGUGUCACCUUCUCUGAGACUUUAACA,0.0999 ± 0.028
12,UAGUGACACACCUUCUCACAGAGAUUAACA,0.0124 ± 0.0065
13,UAGUGACAGUCCUUAUCUGAGAGAUUAACA,0.0438 ± 0.0075
14,UAGUGAGUCAGCCUUCUCUGAGAGAUUAACA,0.0842 ± 0.016
15,UAGUCUGUCACCUUCUCUGAGGAGAUUAACA,0.0158 ± 0.0053
16,UAGUCUGUCACGUUCUCAGAGAGAUUAACA,0.102 ± 0.0078
17,UAGUGACUCUGCUUCUCUGAGAGAUUAUGA,0.0044 ± 0.0029
18,UAGUGAGUCACCUUCUCUCAGACAUUAACA,0.0331 ± 0.011
19,UAGUGACAGUCCUUCUCUGAGAGUAUUAACA,0.0569 ± 0.0088
20,UAGUCUGUCACGAUCUCUGAGAGAUUAAGA,0.025 ± 0.005
21,UAGUGUGUCAGCAUCUCUGAGAGAUUAACA,0.106 ± 0.01
22,UAGUGAGUCACCUUGUCAGAGAGAUUAACA,0.0464 ± 0.0079
23,UAGUGACAGUGCUUCUCUGAGAGAUUCACA,0.00539 ± 0.004

row,Sequence,pre-steady-state target cleavage rate
1,UAGUGACACACCUUCUCUGAGAGAUUCACA,0.258 ± 0.057
2,UAGUGACUCACUUCUCUGAGAGAUUAACA,0.0928 ± 0.0091
3,UAGUGACUCACCUUCUCUGAUGAGAUUAACA,0.00488 ± 0.0046
4,UAGUCUGUCACCUUCUCUGAGAGAUAUAACA,0.235 ± 0.03
5,UAGUCUGUCACCUUCUUGAGAGAUUAACA,0.07 ± 0.023
6,UAGUGACAGUCCAUGUCUGAGAGAUUAACA,0.0217 ± 0.0077
7,UAGUGACACACCUUCUACUGAGAGAUUAACA,0.00808 ± 0.0048
8,UAGUGUGUCACCUUCAGUGAGAGAUAUUGA,0.00442 ± 0.0042
9,UAGUGACUCACCUACUCUGAGAGAUUAUCA,0.121 ± 0.027
10,UAGUGAGUCACCUUCUCUGAGAGAUAAUCA,0.0322 ± 0.015
11,UAGUCUGUCACCUACACUGAGAGAUUAACA,0.114 ± 0.0093
12,UAGUGACAGUCCUUCACUGACAGAUUAACA,0.0159 ± 0.0049
13,UAGUGAGUCACCUUCUCAGAGAGAUUUUGA,0.0646 ± 0.027
14,UAGUCUGUCACCUUCUCUGACACAUUAACA,0.00428 ± 0.0031
15,UAGUGACAGUGGAAGAGACAAGAUUAACA,< 0.0001
16,UAGUGACAUACCUUCUCUGAGAGAUUAACA,0.0484 ± 0.0087
17,UAGUGACUCACCUACUGUGAGAGAUUAACA,0.086 ± 0.0083
18,UAGUGUGACACCUUCUCUGAGAGAUUAAGA,0.0535 ± 0.022
19,UAGUGAGUGACGUUCUCUGAGAGAUUAACA,0.112 ± 0.009
20,UAGUCUGUCACCUUCUCUGAGAGAUUAACC [g2:g26:cont:t1C],0.173 ± 0.013
21,UAGUGUGUCACUUCUCUGAGAGAUUAACA,0.115 ± 0.011
22,UAGUGACUCACCUUCUCUGAGACGAUUAACA,0.0396 ± 0.012
23,UAGUCUGUCUCCUUCUCUGAGAGUUUAACA,0.154 ± 0.025

row,Sequence,pre-steady-state target cleavage rate
1,UAGUGACUCACCUUCUCUGAGAGAUGAACA,0.0895 ± 0.018
2,UAGUGUGUCACCUUGACUGAGAGAUUAACA,0.059 ± 0.009
3,UAGUGACAGACCUUCUCUCAGAGUUUAACA,0.0105 ± 0.0056
4,UAGUCUAGUCACCUUCUCUGAGAGAUUAACA,0.233 ± 0.017
5,UAGUGACAGUGCUUCUGAGAGAGAUUAACA,0.00504 ± 0.0018
6,UAGUGACAGUCCUUCUGUGAGAGAUAAACA,0.00321 ± 0.0026
7,UAGUGUGUCACCUUCUCUGACAGAUUAUCA,0.00637 ± 0.0042
8,UAGUGACAGUGGAAGACUGAGAGAUUCACA,< 0.0001
9,UAGUCUGUCACCUUGUCUCAGAGAUUAACA,0.0236 ± 0.0053
10,UAGUGACUCACCUACUCUGACAGAUUAACA,0.019 ± 0.004
11,UAGUGACACACCUUAUCUGAGAGAUUAACA,0.136 ± 0.016
12,UAGUGUGUCACCUUCUCUGAGAGAUUGAACA,0.0931 ± 0.017
13,UAGUGAGUCACCUUCUCACUGAGAUUAACA,0.0178 ± 0.005
14,UAGUGUGUGACCUUCUCUGAGAGUUUAACA,0.0738 ± 0.021
15,UAGUGUGUGUGCUUCUCUGAGAGAUUAACA,0.0406 ± 0.011
16,UAGUCUGUCACCUUCUCUGUGAGAUUAUCA,0.0478 ± 0.013
17,UAGUGUCUCACCUUCUCUCAGAGAUUAACA,0.0446 ± 0.0082
18,UAGUGACAGACCUUCUCGGAGAGAUUAACA,0.0232 ± 0.0053
19,UAGUGACAGACCUUCUCUGAGAUAUUAACA,0.0283 ± 0.011
20,UAGUGACACACCAUCUCUGAGAGAUUAACA,0.0968 ± 0.007
21,UAGUGAGUGACCUUCUCUGAGAGAUUAUGA,0.0378 ± 0.011
22,UAGUCUGUCACCUUCUCUGAGAGAUAAUCA,0.036 ± 0.015
23,UAGUCUGUCACCUUCUCUGAGCGAUUAACA,0.0346 ± 0.0084

row,Sequence,pre-steady-state target cleavage rate
1,UAGUGACAGUCCUUCUCUGAGAGAUUGAACA,0.098 ± 0.014
2,UAGUCUGACACCUUCUCUCAGAGAUUAACA,0.0446 ± 0.0048
3,UAGUGACAGUCCUUCUCUGAGAAAUUAACA,0.0337 ± 0.0068
4,UAGUGACAGUGGAUCUCUGACAGAUUAACA,< 0.0001
5,UAGUGACUCACCUUUCUCUGAGAGAUUAACA,0.116 ± 0.0091
6,UAGUGACUCUGCUUCUCUGAGAGAUUAACA,0.0483 ± 0.0055
7,UAGUGACAGACCUUCUCACAGAGAUUAACA,0.00899 ± 0.005
8,UAGUGAGUCACCUUCUCUGAAGAUUAACA,0.00551 ± 0.0033
9,UAGUGUGUCACCUUCUCUGAGAGAUAAACA,0.148 ± 0.029
10,UAGUGUGUCACCUUCACUGAGAGAUAAACA,0.0773 ± 0.02
11,UAGUGACAGUGGAAGUCUGAGAGAUUACACA,< 0.0001
12,UAGUCAGUCACCAUCUCUGAGAGAUUAACA,0.171 ± 0.0086
13,UAGUGACAGACCUUCUCUGGGAGAUUAACA,0.104 ± 0.013
14,UAGUCUGUCACCAUCUGUGAGAGAUUAACA,0.0515 ± 0.0056
15,UAGUGACUCACCUUCUCUGAGACAUAAACA,0.00436 ± 0.0035
16,UAGUGACAGUGGUUCUCUGAGACAAUAACA,< 0.0001
17,UAGUGACACACCUUCUCCGAGAGAUUAACA,0.133 ± 0.035
18,UAGUGAGUCACCUUCUCUGAGAGAUAAACA,0.249 ± 0.052
19,UAGUCUGAGACCUUCUCUGAGAGAUUAACA,0.123 ± 0.0076
20,UAGUGACACACCUUCUGUGAGAGAUUAUCA,0.0112 ± 0.0058
21,UAGUCUGUCACCUUCUCUGAGAGAUUGAACA,0.214 ± 0.029
22,UAGUGAGUCACCUUCAGAGAGAGAUUAACA,0.0146 ± 0.0059
23,UAGUGACAGUGCAUCUGUGAGAGAUUAACA,0.00711 ± 0.0027
